Measured values: PMC4336329 (PLoS ONE, 2015)
Among all 310,000 compounds or so, about 2,200 (0.71%) showed an effect of 50% or more. The effect is printed as a negative number. This is one part of the list.

molecular target: human ether-à-go-go-related gene (hERG) potassium channel (human, UniProt Q12809); assay: primary screen, population patch clamp on CHO cells stably expressing hERG
Sequence (Q12809 whole entry, looked up): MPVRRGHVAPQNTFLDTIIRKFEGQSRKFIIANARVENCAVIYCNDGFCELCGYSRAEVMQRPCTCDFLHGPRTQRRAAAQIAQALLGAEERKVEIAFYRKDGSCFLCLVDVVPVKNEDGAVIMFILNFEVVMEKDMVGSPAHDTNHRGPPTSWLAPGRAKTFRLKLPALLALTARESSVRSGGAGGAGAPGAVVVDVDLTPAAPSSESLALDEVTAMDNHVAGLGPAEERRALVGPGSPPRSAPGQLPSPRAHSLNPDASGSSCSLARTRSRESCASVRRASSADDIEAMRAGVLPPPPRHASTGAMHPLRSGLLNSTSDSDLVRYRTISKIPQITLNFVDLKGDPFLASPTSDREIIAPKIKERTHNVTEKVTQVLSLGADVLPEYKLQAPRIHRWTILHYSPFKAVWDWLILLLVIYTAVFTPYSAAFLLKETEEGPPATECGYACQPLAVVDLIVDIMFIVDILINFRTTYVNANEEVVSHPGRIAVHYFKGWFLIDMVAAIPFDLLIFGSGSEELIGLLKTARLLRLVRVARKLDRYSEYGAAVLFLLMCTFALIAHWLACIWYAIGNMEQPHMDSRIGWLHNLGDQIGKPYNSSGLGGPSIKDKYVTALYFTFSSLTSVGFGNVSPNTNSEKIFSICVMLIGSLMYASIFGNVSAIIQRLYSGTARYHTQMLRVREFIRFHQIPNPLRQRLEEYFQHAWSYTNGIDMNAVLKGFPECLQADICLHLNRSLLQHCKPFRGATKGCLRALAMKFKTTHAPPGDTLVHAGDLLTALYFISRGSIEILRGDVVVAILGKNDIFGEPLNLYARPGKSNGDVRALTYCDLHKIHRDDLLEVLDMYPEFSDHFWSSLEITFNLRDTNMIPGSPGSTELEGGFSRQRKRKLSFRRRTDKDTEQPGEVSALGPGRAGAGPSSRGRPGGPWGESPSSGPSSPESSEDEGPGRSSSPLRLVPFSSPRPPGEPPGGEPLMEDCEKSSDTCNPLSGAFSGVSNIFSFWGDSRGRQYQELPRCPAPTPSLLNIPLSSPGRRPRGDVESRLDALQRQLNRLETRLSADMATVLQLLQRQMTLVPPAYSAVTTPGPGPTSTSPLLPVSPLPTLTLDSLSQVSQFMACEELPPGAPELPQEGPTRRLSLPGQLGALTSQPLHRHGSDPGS

Compound | hERG current change (%, negative = inhibition) at 1uM [%]
COc1ccc(CNc2oc(Cc3cccc4ccccc34)nc2C#N)cc1 | 9.94
COc1ccccc1-c1nnc(NC(=O)c2ccc(S(=O)(=O)N(C)C)cc2)o1 | -2
O=C(CSc1nnc(-c2cccnc2)o1)Oc1ccccc1 | 9.45
COc1ccccc1CNC(=O)c1nccnc1CO | 12.8
N#CC1=C2SCC(O)(c3ccccc3)N2C(=O)CC1c1ccccc1F (centres unmarked) | 15.4
COCCC1CCCCN1Cc1cn(-c2ccccc2)nc1-c1ccc2c(c1)OCO2 (centres unmarked) | 3.35
CCc1cc(CNC(=O)CCc2nnc(CCCc3ccccc3)o2)on1 | -10
CS(=O)(=O)c1ccc2c(c1)sc1nc(=O)c(/C=C3/C=CC(=O)C(O)=C3)c(N)n12 | 13
CC(C)c1ccc(-c2nn(-c3ccccc3)cc2C2C(C#N)=C(N)OC3=C2C(=O)CC(C)(C)C3)cc1 (centres unmarked) | 4.84
CC(=O)N1CC[n+]2c(-c3ccc(Cl)cc3Cl)csc21.[Br-] | 5.3
COc1cccc(-c2nc(N3CCN(c4ccccc4)CC3)c3ccccc3n2)c1O | 7.23
CC(=O)Nc1ccc(SC[C@H](Cc2ccccc2)N2CCN(CC(C)C)CCC2=O)cc1 | -2.78
C#CCOCCOCCOCCNc1nc(N2CCOCC2)nc(N2CCN(C(=O)[C@H](CCCCN)n3cc([C@@H](N)CC(C)C)nn3)CC2)n1.Cl | 12.2
COc1ccc2[nH]c(C)c(CCN3C(=O)C4C5C=CC(C5)C4C3=O)c2c1 (centres unmarked) | 1.96
COc1ccccc1N(CC(=O)NCC1CCCO1)C(=O)CNS(=O)(=O)c1ccc(Cl)cc1 (centres unmarked) | 19.2
Cc1nc(NC(=O)/C=C/c2ccccc2)sc1C(=O)Nc1ccccc1 | 17.8
CCc1ccc(NC(=S)N(CCCN2CCOCC2)Cc2ccccn2)cc1 | -15.3
O=C(c1cc(F)ccc1F)C1CCCN(Cc2cccc(Cl)c2)C1 (centres unmarked) | 8.46
CC(C)(C)C(=O)NC(=S)Nc1ccccc1F | -0.0863
O=S(=O)(Cc1nnnn1-c1ccc(Br)cc1)c1ccc(F)cc1 | 3.61
CSCCC(NC=C1C(=O)OC(C)(C)OC1=O)C(=O)O (centres unmarked) | 14.6
Cc1ccc(N2C(=O)CS(=O)(=O)CC2=O)cc1 | 18.6

Compound | hERG current change (%, negative = inhibition) at 1uM [%]
COc1ccc(CCNC(=O)Cc2cccc(C(F)(F)F)c2)cc1OC | 8.45
O=C1CC(c2ccccc2)Cc2nc3ncnn3cc21 (centres unmarked) | 9.74
CC(=O)N(c1ccccc1)C1CC(C)N(C(=O)c2ccccc2)c2ccccc21 (centres unmarked) | 10.2
CC(=O)Oc1ccc(C(=O)c2ccccc2)c(OC(C)=O)c1 | 2.13
Nc1ncnc(Nc2cc(C(F)(F)F)cc(C(F)(F)F)c2)n1 | 9.05
C=C1CCN(C(C(=O)OC)C(C)C)S(=O)(=O)c2ccccc21 (centres unmarked) | 16.3
FC(F)(F)c1nc2ncc(Cl)cc2[nH]1 | 0.811
COc1ccc(OC)c(CNn2c(-c3cccc(C)c3)nc3ccccc3c2=O)c1 | 14.7
COc1ccc(CCNC(=O)c2cc3ccccn3n2)c(OC)c1OC | 7.21
C/C(=N\NC(=O)C(O)c1ccccc1)c1ccc(C)s1 (centres unmarked) | 14.8
Cc1cccc(NC(=S)N2CCC(NC(=O)C3CCCCC3)CC2)c1 | 13
COc1ccc(-c2nc(C3CCCCC3)c3cc(OC)ccc3n2)cc1 | 13.5
O=C(OC(C(=O)NC1CCCC1)c1ccccc1F)c1ccco1 (centres unmarked) | 7.24
Oc1ccccc1Cn1c(-c2ccccc2O)nc2ccccc21 | 10.2
C=C1c2cc3c(cc2NC(=S)N1Cc1ccccc1)OCO3 | 10.4
CC(C)n1c(=O)[nH]c2ccccc21 | 7.66
Cc1cccc(C(C)C)c1NC(=O)COC(=O)c1cc2ccccc2oc1=O | 2.68
CCn1ccnc1CN(C)Cc1nc(-c2ccc3c(c2)OCO3)no1 | 9.48
CCOC(=O)c1csc(-c2ccc(OC)c(OC)c2)n1 | 12.6
COc1cc(Cl)c(S(=O)(=O)NCc2ccccn2)cc1Cl | 7.04
O=C(NCCCN1CCCC1=O)c1ccc(NS(=O)(=O)c2cccc([N+](=O)[O-])c2)cc1 | 5.1
O=C(N/N=C/c1ccccc1OCc1ccccc1)c1cccs1 | 9.54
